Experimental data as given in the supplement of paper PMC4967469.
IC50 is the fitted dose that halves viability relative to control wells, and lower means more sensitive; a fit beyond the top or the lowest dose is shown as a bound at that dose. The AUC spans the tested range (256-fold, ending at the top dose) of the same fit; it is 1 without any effect and falls as sensitivity rises. For some assays here: Any top dose called inferred comes from the curve model; the source does not state it.

What was measured:
Test in all cases: Viability of human cancer cell lines after 72 h of drug (GDSC screen)
BMX-IN-1 (QL-XII-61) = compound: C=CC(=O)Nc1cc(-n2c(=O)ccc3cnc4ccc(-c5ccc(NS(C)(=O)=O)cc5)cc4c32)ccc1C [BMX-IN-1 (QL-XII-61)]; conditions: top dose 10 µM; top dose inferred
Description: (§1)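 Human cancer cell lines in 384-well plates, medium with 10% serum, drug for 72 h over a 256-fold dose range (nine 2-fold or five 4-fold steps up to the top dose). Adherent lines were fixed and stained with the nucleic acid dye Syto60, suspension lines read with resazurin; signal relative to control wells, capped at 0 and 100%. One two-parameter sigmoid per drug and line, fitted in a mixed model over all curves with the slope shared within a line.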

17-AAG = compound: C=CCNC1=C2C[C@@H](C)C[C@H](OC)[C@H](O)[C@@H](C)/C=C(\C)[C@H](OC(N)=O)[C@@H](OC)/C=C\C=C(/C)C(=O)NC(=CC1=O)C2=O [17-AAG]; conditions: top dose 1 µM
Description: as §1

Dimethyloxalylglycine = compound: COC(=O)CNC(=O)C(=O)OC [Dimethyloxalylglycine]; conditions: top dose 4000 µM; top dose inferred
Description: as §1

Doxorubicin = compound: COc1cccc2c1C(=O)c1c(O)c3c(c(O)c1C2=O)C[C@@](O)(C(=O)CO)C[C@@H]3O[C@H]1C[C@H](N)[C@H](O)[C@H](C)O1 [Doxorubicin]; conditions: top dose 1.024 µM
Description: as §1

VX-11e = compound: Cc1cnc(Nc2ccc(F)cc2Cl)nc1-c1c[nH]c(C(=O)N[C@H](CO)c2cccc(Cl)c2)c1 [VX-11e]; conditions: top dose 5.12 µM; top dose inferred
Description: as §1

OSI-027 = compound: COc1cccc2cc(-c3nc([C@H]4CC[C@H](C(=O)O)CC4)n4ncnc(N)c34)[nH]c12 [OSI-027]; conditions: top dose 20 µM
Description: as §1

Vismodegib = compound: CS(=O)(=O)c1ccc(C(=O)Nc2ccc(Cl)c(-c3ccccn3)c2)c(Cl)c1 [Vismodegib]; conditions: top dose 10 µM; top dose inferred
Description: as §1

TG101348 = compound: Cc1cnc(Nc2ccc(OCCN3CCCC3)cc2)nc1Nc1cccc(S(=O)(=O)NC(C)(C)C)c1 [TG101348]; conditions: top dose 10.24 µM
Description: as §1

UNC1215 = compound: O=C(c1ccc(C(=O)N2CCC(N3CCCC3)CC2)c(Nc2ccccc2)c1)N1CCC(N2CCCC2)CC1 [UNC1215]; conditions: top dose 1 µM; top dose inferred
Description: as §1

BIX02189 = compound: CN(C)Cc1cccc(N=C(c2ccccc2)c2c(O)[nH]c3cc(C(=O)N(C)C)ccc23)c1 [BIX02189]; conditions: top dose 20 µM; top dose inferred
Description: as §1

CCT018159 = compound: CCc1cc(-c2n[nH]c(C)c2-c2ccc3c(c2)OCCO3)c(O)cc1O [CCT018159]; conditions: top dose 10 µM; top dose inferred
Description: as §1

Cell Line | AUC (BMX-IN-1 (QL-XII-61)) | IC50 (BMX-IN-1 (QL-XII-61)) [µM] | AUC (17-AAG) | IC50 (17-AAG) [µM] | AUC (Dimethyloxalylglycine) | IC50 (Dimethyloxalylglycine) [µM] | AUC (Doxorubicin) | AUC (VX-11e) | IC50 (VX-11e) [µM] | AUC (OSI-027) | IC50 (OSI-027) [µM] | AUC (Vismodegib) | IC50 (Vismodegib) [µM] | AUC (TG101348) | IC50 (TG101348) [µM] | AUC (UNC1215) | IC50 (UNC1215) [µM] | AUC (BIX02189) | IC50 (BIX02189) [µM] | IC50 (Doxorubicin) [µM] | AUC (CCT018159) | IC50 (CCT018159) [µM]
SNU-387 (liver, adherent) | 0.959 | > 10 | 0.914 | > 1 | 0.559 | 370 | 0.689 | 0.742 | 1.76 | 0.448 | 0.885 | 0.984 | > 10 | 0.528 | 0.772 | 0.98 | > 1 | 0.963 | > 20 |  |  | 
COLO-783 (melanoma, adherent) | 0.99 | > 10 | 0.956 | > 1 | 0.933 | > 4000 | 0.944 | 0.967 | > 5.12 | 0.975 | > 20 | 0.979 | > 10 | 0.98 | > 10.2 | 0.981 | > 1 | 0.989 | > 20 | > 1.02 |  | 
HCC-78 (lung adenocarcinoma, adherent) | 0.967 | > 10 | 0.691 | 0.238 | 0.51 | 267 | 0.686 | 0.982 | > 5.12 | 0.408 | 0.668 | 0.967 | > 10 | 0.811 | 6.64 | 0.97 | > 1 | 0.967 | > 20 | 0.235 |  | 
CHSA0011 (chondrosarcoma, adherent) | 0.958 | > 10 | 0.813 | 0.835 | 0.814 | 3390 | 0.844 | 0.96 | > 5.12 | 0.826 | 19.4 | 0.98 | > 10 | 0.833 | > 10.2 | 0.975 | > 1 | 0.911 | > 20 | > 1.02 |  | 
DMS-273 (small cell lung carcinoma, adherent) | 0.983 | > 10 | 0.715 | 0.264 | 0.274 | 54.5 | 0.496 | 0.887 | > 5.12 | 0.154 | 0.0985 | 0.917 | > 10 | 0.713 | 2.67 |  |  | 0.91 | > 20 | 0.0624 | 0.941 | > 10
A704 (kidney, adherent) | 0.984 | > 10 | 0.926 | > 1 | 0.761 | 1380 | 0.876 | 0.939 | > 5.12 | 0.939 | > 20 | 0.985 | > 10 | 0.885 | > 10.2 | 0.987 | > 1 | 0.913 | > 20 | 0.965 |  | 
SK-PN-DW (Ewing sarcoma, adherent) | 0.983 | > 10 | 0.966 | > 1 | 0.508 | 263 | 0.379 | 0.972 | > 5.12 | 0.142 | 0.0895 | 0.869 | 9.86 | 0.818 | 6.03 | 0.974 | > 1 | 0.947 | > 20 | 0.0293 |  | 
HCC202 (breast, adherent) | 0.961 | > 10 | 0.889 | > 1 |  |  | 0.794 | 0.946 | > 5.12 |  |  | 0.937 | > 10 |  |  | 0.974 | > 1 | 0.939 | > 20 | 0.699 | 0.978 | > 10
NB6 (neuroblastoma, adherent) | 0.892 | > 10 | 0.956 | > 1 | 0.707 | 1110 | 0.848 | 0.982 | > 5.12 | 0.641 | 3.37 | 0.984 | > 10 | 0.875 | > 10.2 |  |  | 0.895 | > 20 | > 1.02 | 0.96 | > 10
MDA-MB-415 (breast, adherent) | 0.976 | > 10 | 0.767 | 0.5 | 0.789 | 2470 | 0.929 | 0.983 | > 5.12 | 0.945 | > 20 | 0.983 | > 10 | 0.983 | > 10.2 | 0.98 | > 1 | 0.983 | > 20 | > 1.02 |  | 
KP-N-YN (neuroblastoma, adherent) | 0.813 | 6.05 | 0.941 | > 1 | 0.816 | 2480 | 0.914 | 0.98 | > 5.12 | 0.964 | > 20 | 0.986 | > 10 | 0.947 | > 10.2 | 0.985 | > 1 | 0.971 | > 20 | > 1.02 |  | 
NH-12 (neuroblastoma, adherent) | 0.983 | > 10 | 0.88 | > 1 | 0.797 | 2150 | 0.54 | 0.719 | 1.45 | 0.431 | 0.791 | 0.984 | > 10 | 0.702 | 2.56 |  |  | 0.886 | > 20 | 0.0835 | 0.888 | > 10
H513 (mesothelioma, semi-adherent) | 0.978 | > 10 | 0.65 | 0.179 |  |  | 0.764 | 0.982 | > 5.12 | 0.904 | > 20 | 0.986 | > 10 | 0.841 | 9.46 | 0.983 | > 1 | 0.96 | > 20 | 0.45 | 0.985 | > 10
LNCaP-Clone-FGC (prostate, adherent) | 0.956 | > 10 | 0.864 | > 1 | 0.842 | 3410 | 0.659 | 0.931 | > 5.12 | 0.232 | 0.184 |  |  | 0.761 | 4.12 | 0.982 | > 1 | 0.93 | > 20 | 0.189 | 0.932 | > 10
NB7 (neuroblastoma, adherent) | 0.925 | > 10 | 0.892 | > 1 | 0.233 | 40.3 | 0.67 | 0.977 | > 5.12 | 0.043 | < 0.0781 |  |  | 0.8 | 5.22 | 0.974 | > 1 | 0.971 | > 20 | 0.195 | 0.926 | > 10
KCL-22 (chronic myeloid leukaemia, suspension) | 0.948 | > 10 | 0.951 | > 1 | 0.364 | 113 | 0.688 | 0.924 | > 5.12 | 0.187 | 0.18 | 0.991 | > 10 | 0.599 | 1.14 | 0.982 | > 1 | 0.94 | > 20 | 0.195 |  | 
MFE-319 (endometrium, adherent) | 0.983 | > 10 | 0.705 | 0.231 | 0.759 | 1360 | 0.516 | 0.97 | > 5.12 | 0.714 | 4.93 |  |  | 0.958 | > 10.2 | 0.987 | > 1 | 0.987 | > 20 | 0.0708 | 0.919 | > 10
ALL-SIL (T-cell leukaemia, suspension) | 0.892 | 8.89 | 0.988 | > 1 | 0.255 | 56.3 | 0.457 | 0.643 | 0.749 | 0.3 | 0.376 | 0.984 | > 10 | 0.446 | 0.465 | 0.987 | > 1 | 0.575 | 1.94 | 0.0497 |  | 
TC-71 (Ewing sarcoma, adherent) | 0.652 | 1.52 | 0.751 | 0.282 | 0.891 | 3290 | 0.903 | 0.927 | > 5.12 | 0.239 | 0.261 |  |  | 0.776 | 3.39 | 0.991 | > 1 | 0.931 | > 20 | 0.948 | 0.899 | 8.9
MDA-MB-330 (breast, adherent) | 0.95 | > 10 | 0.462 | 0.0484 | 0.781 | 1910 | 0.752 | 0.986 | > 5.12 | 0.732 | 6.39 | 0.978 | > 10 | 0.959 | > 10.2 | 0.984 | > 1 | 0.979 | > 20 | 0.383 |  | 
NCI-H1355 (lung adenocarcinoma, adherent) | 0.967 | > 10 | 0.617 | 0.151 | 0.546 | 353 | 0.547 | 0.968 | > 5.12 | 0.922 | > 20 |  |  | 0.949 | > 10.2 | 0.971 | > 1 | 0.978 | > 20 | 0.0909 | 0.887 | > 10
SK-CO-1 (large intestine, adherent) | 0.953 | > 10 | 0.51 | 0.0665 | 0.855 | 2890 | 0.638 | 0.529 | 0.382 | 0.989 | > 20 |  |  | 0.925 | > 10.2 | 0.982 | > 1 | 0.956 | > 20 | 0.15 | 0.954 | > 10
HT55 (large intestine, adherent) | 0.934 | > 10 | 0.875 | 0.98 | 0.656 | 675 | 0.897 | 0.984 | > 5.12 | 0.99 | > 20 | 0.99 | > 10 | 0.989 | > 10.2 |  |  | 0.989 | > 20 | > 1.02 |  | 
EN (endometrium, adherent) | 0.982 | > 10 | 0.879 | > 1 | 0.715 | 1210 | 0.623 | 0.962 | > 5.12 | 0.698 | 5.29 | 0.984 | > 10 | 0.881 | > 10.2 | 0.98 | > 1 | 0.956 | > 20 | 0.153 |  | 
